Data reported in PubChem BioAssay AID493208 (National Center for Advancing Translational Sciences (NCATS), 2011).
Hit rate of the full screen: of about 44,000 compounds, about 340 (0.77%) were called active. Roughly 5% stayed inconclusive and do not appear here. Calls follow the shape of the dose curve; as a rule, active = well fitted inhibition curve with a large enough effect; inconclusive = small, poorly fitted or top-dose-only effect; inactive = flat fitted curve, though single readings scatter. The list shows a part of the results.

Assay: Acumen qHTS Assay for Inhibitors of the mTORC1 Signaling Pathway in MEF (Tsc2-/-, p53-/-) Cells: Sytravon; also: nearly all actives have a fitted effect of over 50% in size
Conditions: phospho-rpS6 immunofluorescence/PI, 24 h; series mostly up to 38.3 µM; activity change, negative = inhibition: at the top concentration
Outline: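 Readout is phospho-S6 Alexa 488 signal normalized to PI per well, reported as % active cells with thresholds set from rapamycin (7.5 nM) and DMSO controls. Cells: Tsc2-/-, p53-/- MEFs, 24 hrs compound at 37 C; PI cell number serves as viability.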
Potency is read from the fitted curve at half-maximal effect.

Structure (SMILES)	activity change, negative = inhibition	Potency
C=CCC(CC=C)(CNC(=O)C(=O)Nc1ccc(Br)cc1)c1ccc(OC)c(OC)c1	inactive: 1.49%	
O=C(NCc1cccc(Cl)c1)c1cnc(N2CCOCC2)c2ccccc12	inactive: -12.1%	
CCOc1ccc(NS(=O)(=O)c2c(C)nc3sc(CC)nn3c2=O)cc1	inactive: 3.34%	
COCCNC(=O)c1ccc2c(c1)ncn2-c1cc(C)ccc1OC	inactive: -1.54%	
CCc1ccc(CNC(=O)Cn2nc(C)c3nn(-c4ccc(Cl)cc4)c(C)c3c2=O)cc1	inactive: -5%	
Cn1cccc1-c1cc2n(n1)CCC(=O)N2CCCC(=O)NCc1cccc(Cl)c1	inactive: 2.01%	
Cc1ccc(C(=O)Nc2cc(-c3cn4cccnc4n3)ccc2C)cc1C	inactive: 2.62%	
Cc1nnc(NC(=O)CSc2nccn2Cc2ccccc2)s1	inactive: -15%	
CSCCC(NS(=O)(=O)c1ccc2c(c1)oc(=O)n2C)C(=O)NCc1ccc(Cl)cc1 (centres undefined)	inactive: 0.312%	
Cc1ccc(C)c(NC(=O)c2nc(S(=O)(=O)Cc3ccc(F)cc3)ncc2Cl)c1		active: 2070 nM
CCc1ccccc1S(=O)(=O)Cc1ccc(C(=O)NCCc2ccc(Cl)cc2)o1	inactive: -4.36%	
O=C(Nc1cc(-c2cccc(Cl)c2)nn1-c1ccccc1)c1ccccc1F	inactive: 2.9%	
CCS(=O)(=O)c1ncc(N(Cc2ccccc2)Cc2ccco2)c(C(=O)Nc2ccccc2C)n1	inactive: 0.606%	
O=C(Cc1ccc(Cl)cc1)NCCc1csc2nc(-c3ccccc3F)nn12	inactive: -2.75%	
Cc1cc(F)ccc1Nc1nc2ccc(Cl)cc2n2cnnc12	inactive: 0.766%	
CCC(C)(C)NC(=O)C(NS(=O)(=O)c1cccs1)c1ccccc1 (centres undefined)	inactive: -12%	
CCOC(=O)c1ccc(-n2c(CCC(=O)O)ccc2-c2ccccc2)cc1O	inactive: 0.241%	
CC(CC(=O)Nc1ccc(F)cc1)S(=O)(=O)c1cc2c3c(c1)CCN3C(=O)CC2 (centres undefined)	inactive: 0%	
COc1ccc(N2CCN(C(=O)C(CC(C)C)NS(=O)(=O)c3ccc4nc(C)sc4c3)CC2)cc1 (centres undefined)	inactive: 0.176%	
CNc1ccc(-c2nc(-c3ccncc3)no2)cc1[N+](=O)[O-]	inactive: -5.18%	
COC(=O)c1ccccc1NC(=O)CSc1nc2ccccc2nc1Cc1ccc(F)cc1	inactive: 1.64%	
O=C(NC1CCCCC1)c1ccc2c(c1)N(Cc1cccc(Cl)c1)C(=O)c1ccccc1S2(=O)=O	inactive: -1.34%	
Cc1ccc(CNc2cc(C)nc3nc(-c4ccc(C)cc4)nn23)cc1	inactive: -2.48%	
COc1ccc(CNC(=O)CCc2c(C)nc3cc(-c4ccc(OC)cc4OC)nn3c2C)cc1	inactive: 0.985%	

Structure (SMILES)	activity change, negative = inhibition	Potency
Cc1cccc(NC(=O)Cn2c(=O)n(CC3CCC(C(=O)NCCc4ccccc4)CC3)c(=O)c3ccccc32)c1 (centres undefined)	inactive: 0.0571%	
Fc1ccc(Nc2nc(-c3cccc(Cl)c3)c3c(n2)-c2ccccc2OC3)c(F)c1	inactive: -0.848%	
Fc1ccc(-c2cc(-c3ccc(F)cc3)c3c(n2)-c2cc(F)ccc2OC3)cc1	inactive: 6.6%	
CCOc1ccc2nc(N3CCCC(C(=O)Nc4ccccc4CC)C3)sc2c1 (centres undefined)	inactive: -0.71%	
CCc1ccc(NC(=O)CSc2nc(-c3ccc(C)cc3)nc3c2Cc2c(CO)cnc(C)c2O3)cc1	inactive: -3.24%	
CCOC(=O)c1cc(-c2ccc(F)cc2)n(CCC(=O)NC2CCC(C)CC2)c1C (centres undefined)	inactive: -0.185%	
CCc1ccc(-c2nc3cc(NC(=O)c4ccc(C)c(C)c4)ccc3o2)cc1	inactive: -5.88%	
Cc1c(NC(=O)c2cccs2)cccc1-c1nc2cc(Cl)ccc2o1	inactive: -3.31%	
COc1ccc(S(=O)(=O)n2nc(-c3ccco3)nc2NCc2ccc(C(C)C)cc2)cc1	inactive: -1.86%	
CCOc1ccc(NC(=O)c2nc(S(=O)(=O)Cc3ccccc3F)ncc2Cl)cc1		active: 3690 nM
O=C(NCCCN1CCN(c2ccccc2F)CC1)c1ccc2nc(CCc3ccccc3)oc2c1	inactive: -12.5%	
CCOc1ccc(C(=O)Nc2ccc(OCc3cc(=O)n4cccc(C)c4n3)cc2)cc1	inactive: 0.189%	
CC(=O)NCCNC(=O)CCCc1nnc2n(CC(C)C)c(=O)c3sccc3n12	inactive: -3.33%	
COc1ccc(-c2cc(-c3nc(-c4cc(OC)c(OC)c(OC)c4)no3)[nH]n2)c(OC)c1	inactive: -18.3%	
CCc1nnc2c3ccccc3nc(Nc3cc(C)cc(C)c3)n12	inactive: -13.8%	
COc1ccc(S(=O)(=O)NCc2cccn2Cc2cc(C)ccc2C)cc1OC	inactive: 6.49%	
COc1cccc(NC(=O)Cn2c(=O)n(Cc3ccc(F)cc3)c(=O)c3sc4ccccc4c32)c1	inactive: 2.22%	
CCOc1ccc(CCNC(=O)c2c(C)oc3ncn(CC(C)C)c(=O)c23)cc1OCC	inactive: -3.2%	
CC(=O)N1CCc2c(sc3c2c(=O)n(-c2ccccc2)c(=O)n3CC(=O)Nc2cc(C)cc(C)c2)C1	inactive: -3.1%	
Cc1ccc(-n2nc(C(=O)N3CCN(c4ccccc4F)CC3)c(=O)n(C)c2=O)cc1	inactive: 2.83%	
CCCCCc1ccc(-c2ccc(Br)cc2)nc1	inactive: -8.61%	
O=C(NCc1ccccc1F)C(=O)NCC(c1ccc2c(c1)OCO2)N1CCOCC1 (centres undefined)	inactive: -1.07%	
CCc1ccc(NC(=O)CSc2nc(C)c(C(=O)Nc3ccccc3)c(-c3ccc(OC)c(OC)c3)c2C#N)cc1	inactive: 0.28%	
Cc1cc(Br)ccc1NC(=O)CSc1c2c(nc3ccccc13)CCC2	inactive: -10.3%	

Structure (SMILES)	activity change, negative = inhibition	Potency
CCOc1ccc(CNC(=O)CCc2c(C)nn(-c3ccc(N4CCCCC4)nn3)c2C)cc1	inactive: -2.46%	
CC(C)(C)C(=O)CSc1nc2ccsc2c(=O)n1Cc1ccccc1Cl	inactive: -0.006%	
CSc1ccc(CCNC(=O)c2cc(C)nc3c2c(C)nn3-c2cccc(F)c2)cc1	inactive: 6.65%	
COc1ccccc1N1CCN(c2ccc(=O)n(CC(=O)NCc3ccc(F)cc3)n2)CC1	inactive: -7.62%	
COc1ccc(NC(=O)c2cc3cc(C)ccc3[nH]2)cc1	inactive: -0.695%	
CCOc1ccccc1NC(=O)CSc1nc2c(oc3ccccc32)c(=O)n1-c1ccc(F)cc1	inactive: 2.63%	
COc1cccc(CSc2nc3n(n2)C(c2ccc(C(=O)O)cc2)C(C(=O)Nc2ccccc2)=C(C)N3)c1 (centres undefined)	inactive: -5.7%	
O=C(OCc1cc(=O)n2nc(-c3cccs3)sc2n1)c1ccccc1Cl	inactive: -1.07%	
CSc1ccccc1-c1nnc(NC(=O)c2ccc3c(c2)OCCO3)o1	inactive: -10.4%	
Cc1c(C(=O)N2CCCCCC2)c(S(=O)(=O)NCc2ccccc2)c(C)n1C	inactive: -13.9%	
O=C(CSc1nc(=O)n(CCN2CCOCC2)c2c1CCC2)Nc1ccc(Cl)c(Cl)c1	inactive: 3.75%	
O=C(Nc1ccc(F)c(Cl)c1)Nc1c[nH]c(=O)[nH]c1=O	inactive: 0%	
CC(CNC(=O)c1cnn(-c2ccc(F)cc2)c1-n1cccc1)c1ccccc1 (centres undefined)	inactive: -4.94%	
CC(=O)Nc1ccccc1-c1nc2ccccc2n(CC(=O)Nc2cccc(C)c2C)c1=O	inactive: -15%	
Cc1ccc2nc(SCc3nc(-c4ccc(Cl)cc4)no3)[nH]c2c1	inactive: -21.7%	
Cc1cc2c(cc1S(=O)(=O)Nc1cccc(Cl)c1C)n(C)c(=O)c(=O)n2C	inactive: -2.02%	
Cc1cc(C)cc(N2C(=O)CSC23C(=O)N(Cc2c(F)cccc2Cl)c2ccccc23)c1 (centres undefined)	inactive: 3.7%	
CCOC(=O)c1cc(-c2ccccc2)n(CCC(=O)Nc2ccccc2CC)c1C	inactive: -5.03%	
COc1ccc(C2CC(=O)N(Cc3ccc(C)cc3)c3c2c(C)nn3-c2nc(C)cc(C)n2)c(OC)c1 (centres undefined)	inactive: 0.492%	
Cc1cccc2nc(-c3ccccn3)c(Nc3ccc(F)cc3)n12	inactive: -15.5%	
CCCCC12CN3CC(C)(CN(C1)C3c1c[nH]c3ccccc13)C2=O (centres undefined)	inactive: 1.82%	
CCCCC(CC)CNC(=O)Cc1ccc(-n2c(=O)[nH]c3ccccc3c2=O)cc1 (centres undefined)	inactive: 1.06%	
Cc1cccc(CSc2nc3c([nH]c4ccccc43)c(=O)n2C)c1	inactive: 1.39%	
CC(=O)N1c2ccc(S(=O)(=O)Nc3ccc(C)c(Cl)c3)cc2CC1C (centres undefined)	inactive: -22.1%	

Structure (SMILES)	activity change, negative = inhibition	Potency
COc1ccc(N2CCN(S(=O)(=O)c3ccc(-c4coc(C)n4)cc3)CC2)cc1	inactive: 0.961%	
CCOc1ccc(CC(=O)Nc2c(C(=O)c3ccccc3)oc3ccc(Cl)cc23)cc1OCC	inactive: -0.783%	
Cc1c(CCNC(=O)c2ccc(C(C)(C)C)cc2)sc2nc(-c3ccc(F)cc3)nn12	inactive: -3.33%	
CC1=C(C(=O)Nc2cccnc2)C(c2ccc(C)cc2)n2nc(SCc3ccccc3F)nc2N1 (centres undefined)	inactive: -7.59%	
COc1cc2c(cc1OC)n(CC(=O)c1cc(C)ccc1C)c(=O)n1nc(CCn3nc(C)cc3C)nc21	inactive: 0.166%	
Cc1cc(Nc2ccc(F)cc2F)nc(-n2nc(C)cc2C)n1	inactive: 5.22%	
CCc1cc2c(cc3c(=O)n(CCCC(=O)NCc4cccc(Br)c4)ncn32)s1	inactive: -5.51%	
CNS(=O)(=O)c1cn(CC(=O)N2CCN(c3ccc(C(C)=O)cc3)CC2)cc1S(=O)(=O)NC	inactive: -3.51%	
Cc1ccc(NC(=O)C(CC(C)C)N2Cc3ccccc3C2=O)cc1F (centres undefined)	inactive: 0%	
Cc1ccc(-n2ncc(C(=O)NCc3ccc4c(c3)OCO4)c2C2CCN(C(=O)OC(C)(C)C)CC2)c(C)c1	inactive: 3.9%	
CC(=O)Nc1ccc(NS(=O)(=O)c2c(C(=O)N3CCCCCC3)c(C)n(C)c2C)cc1	inactive: 10.7%	
COC(=O)c1ccc(NC(=O)c2cc(S(=O)(=O)N3CCOCC3)cn2C)cc1	inactive: -1.46%	
Cc1ccccc1OCC(=O)Nc1ccc(S(=O)(=O)N(Cc2ccccc2)c2ccccc2)cc1	inactive: -3.03%	
COc1ccc(CCNC(=O)CSc2cn(CCNC(=O)c3c(F)cccc3F)c3ccccc23)cc1OC	inactive: 5.99%	
CN(C)c1ccc(NC(=O)Cn2c(SCc3ccc(F)cc3)nc3ccncc32)cc1	inactive: -4.11%	
COc1ccc(Cn2c(=O)c3oc4ccccc4c3n(CC(=O)Nc3c(C)cccc3C)c2=O)cc1	inactive: -3.69%	
Cc1ccc(C(=O)COC(=O)CCC(=O)Nc2ccc(Oc3ccccc3)cc2)cc1	inactive: 4.78%	
Cc1oc2cc3oc(=O)c(CCC(=O)NCCc4ccccc4F)c(C)c3cc2c1C	inactive: 2.84%	
COc1ccc(-c2nc3c(c(SCc4ccc(Br)cc4)n2)Cc2c(CO)cnc(C)c2O3)cc1	inactive: 2.74%	
Cc1ccc(OCCSc2nnc(-c3cccs3)o2)cc1	inactive: -13.7%	
CCC(=O)N1c2ccccc2CC1C(=O)NCc1ccc(CC)cc1 (centres undefined)	inactive: -0.31%	
Cc1ccc2c(c1)c1c(c(=O)n(-c3ccccc3)c(=O)n1Cc1ccccc1C)n2C	inactive: -0.109%	
